# Measured values taken from PubChem BioAssay AID488969 (Vanderbilt High Throughput Screening Facility, 2010).
# Over roughly 110,000 compounds, “z-score” has its median near -0.1; the highest 2% begin near 2. The list shows a part of the results.
# Target: Metabotropic glutamate receptor 8 (Rattus norvegicus) (UniProt P70579)
# Test: mGluR8 Gi/Go-coupled signaling modulation – cell-based, rat, thallium flux, HTS, primary screen (AID 488969)
# Conditions: HEK293 rat mGluR8, GIRK (G protein-gated inwardly rectifying potassium channel) thallium flux, FluoZin2; at 10 µM; stronger effect = higher value; submaximal glutamate (EC20) added with thallium
# UniProt P70579, sequence (P70579 whole entry, looked up): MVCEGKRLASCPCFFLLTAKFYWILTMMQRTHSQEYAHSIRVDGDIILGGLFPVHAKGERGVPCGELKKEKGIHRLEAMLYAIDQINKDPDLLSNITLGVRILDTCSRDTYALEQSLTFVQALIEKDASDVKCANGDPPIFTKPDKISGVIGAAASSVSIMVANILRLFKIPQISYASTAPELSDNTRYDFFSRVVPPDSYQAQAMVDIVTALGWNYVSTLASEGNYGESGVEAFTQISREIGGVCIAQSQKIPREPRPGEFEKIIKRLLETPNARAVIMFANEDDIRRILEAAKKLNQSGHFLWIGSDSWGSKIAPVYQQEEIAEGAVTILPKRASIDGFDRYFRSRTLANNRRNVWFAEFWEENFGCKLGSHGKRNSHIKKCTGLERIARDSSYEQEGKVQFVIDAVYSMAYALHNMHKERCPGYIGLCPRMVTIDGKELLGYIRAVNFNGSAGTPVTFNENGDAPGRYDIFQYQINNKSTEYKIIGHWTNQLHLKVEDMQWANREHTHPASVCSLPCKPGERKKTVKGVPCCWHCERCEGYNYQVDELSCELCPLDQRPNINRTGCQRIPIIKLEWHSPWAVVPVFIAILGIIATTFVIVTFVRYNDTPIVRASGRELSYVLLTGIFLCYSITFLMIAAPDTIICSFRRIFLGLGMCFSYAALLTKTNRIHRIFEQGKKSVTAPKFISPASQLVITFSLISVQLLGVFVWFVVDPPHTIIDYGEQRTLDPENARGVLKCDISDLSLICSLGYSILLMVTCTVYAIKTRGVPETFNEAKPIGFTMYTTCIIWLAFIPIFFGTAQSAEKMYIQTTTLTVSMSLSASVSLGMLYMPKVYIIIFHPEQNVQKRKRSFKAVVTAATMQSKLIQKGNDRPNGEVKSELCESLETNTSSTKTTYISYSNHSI
row,SMILES,z-score
1,COc1ccccc1N1CCN(C(c2ccc(N(C)C)cc2)c2nnnn2CCc2ccccc2)CC1 (stereo unspecified),-0.138
2,O=C(O)C1CCN(C(=O)c2ccccc2Cl)CC1,-0.551
3,CCC(=O)Oc1c(-c2ccccc2)c2nc3ccccc3nc2c2ccccc12,-0.0624
4,CC12C=CC3(CN(Cc4ccccc4)C(=O)C3C1C(=O)NC1CC1)O2 (stereo unspecified),-0.325
5,COC(=O)c1ccccc1NC(=O)C1CCCN(S(=O)(=O)c2ccc(OC)cc2)C1 (stereo unspecified),-0.798
6,Cc1cnn(-c2ccc3nnc(-c4ccc(Cl)cc4)n3n2)c1,-1.29
7,O=[N+]([O-])c1ccc(Cl)c(S(=O)(=O)N2CCCCCC2)c1,-0.0418
8,CCNC(=O)C1CC(=O)N(Cc2ccc3c(c2)OCO3)C(=Nc2ccc(OCC)cc2)S1 (stereo unspecified),-0.0594
9,Cc1ccccc1Nc1nnc(SCC(=O)NC(=O)Nc2ccc3c(c2)OCCO3)s1,-0.314
10,CCCCCCn1c(=O)c(F)cn(Cc2ccc(OC)c([N+](=O)[O-])c2)c1=O,-0.355
11,CN(C)c1cc(O)c(C(=S)Nc2ccccc2)c(N(C)C)c1,-1.36
12,COc1ccc(Br)cc1CN(C)CC(=O)Nc1cc(Cl)ccc1Cl,-0.25
13,Cc1cccc(N2CCN(C(=O)Cn3nc(Cc4ccncc4)c4ccccc4c3=O)CC2)c1C,-0.488
14,CN1CCN(C(=O)NC2CCCN2S(=O)(=O)c2ccc(Cl)cc2)CC1 (stereo unspecified),-0.108
15,CCOc1ccc(-c2nc(CSCC(=O)N3CCN(c4cccc(OC)c4)CC3)c(C)o2)cc1,0.208
16,CC(Sc1ccc(Cl)cc1)C(=O)Nc1ccccc1-c1ccccc1 (stereo unspecified),-0.262
17,Clc1cccc(/C=N/Nc2nc(Cl)nc3ccccc23)c1,-0.0962
18,O=C(Nc1cc(C(F)(F)F)ccc1Cl)C(NCc1ccccc1)c1ccccc1 (stereo unspecified),0.13
19,O=C(/C=C/c1ccc(Br)cc1)c1ccco1,-0.0794

row,SMILES,z-score
1,C=CCN1C(=O)CS/C1=C(\C#N)S(=O)(=O)c1ccc(C)cc1,0.0631
2,CCCCn1nnnc1SCC(=O)N(CC)CC,0.0106
3,CCOc1ccc(Nc2nc(Cc3nnc(SCC(=O)NC4CCCCC4)n3C)cs2)cc1,-0.301
4,COc1cc(OC)c(-c2nnc(-c3ccc(OC)c(OC)c3OC)o2)cc1OC,-0.705
5,O=C(Nc1cnn(Cc2c(Cl)cccc2Cl)c1)C(c1ccccc1)c1ccccc1,-0.224
6,CN(C)C(=O)N1CCN(C(=O)c2ccccc2Sc2ccccc2C#N)CC1,0.305
7,Cc1cc(C(=O)COC(=O)c2csc3c2CCCC3)c(C)n1C,0.456
8,N#Cc1ccccc1Cn1cc(C#N)c2ccccc21,-0.163
9,COc1ccccc1Nc1nc(C2(C)CCC(=O)O2)cs1 (stereo unspecified),0.011
10,CC(=O)Cc1nsc(NC(=O)c2ccc(-c3ccc(Cl)cc3Cl)o2)n1,-0.29
11,O=c1cc(NCc2ccco2)c2ccccc2o1,-0.304
12,CC(C)n1c(=O)[nH]c2ccccc21,1.11
13,CCOc1cc(C)nc(NCCc2ccc(OC)c(OC)c2)n1,-0.375
14,CCN(CC)S(=O)(=O)c1ccc(-c2nnc(SCC(=O)Nc3nc(C)cs3)o2)cc1,-0.361
15,COc1ccc(NC2C=CS(=O)(=O)C2)c(OC)c1 (stereo unspecified),0.194
16,CCC/S(CC1CC1(Cl)Cl)=N\S(=O)(=O)c1ccc(C)cc1 (stereo unspecified),0.367
17,O=C(O)CCCCCNC(=O)CCn1nnc2ccccc2c1=O,0.561
18,CCCC1Cc2c(sc3nc(SC)nc(N)c23)CO1 (stereo unspecified),-0.341
19,O=C(O)CSCC(=O)Nc1ccccc1,0.00603

row,SMILES,z-score
1,Cc1ccc(S(=O)(=O)NCC(=O)N2CCN(c3ccccn3)CC2)cc1,0.32
2,CCOc1ccc(OCC)c2sc(C)nc12,-0.6
3,CCC(=O)N1CN(S(=O)(=O)c2ccc(C)cc2)CC1C (stereo unspecified),-0.446
4,Cn1c(CC(=O)Nc2ccccc2)c(Sc2ccccc2)c2ccccc21,-0.106
5,CCOc1ccc(-c2nc(-c3cccnc3)no2)cc1,0.878
6,Cc1cc2nc(C3CCCN(C(=S)Nc4ccccc4)C3)[nH]c2cc1C (stereo unspecified),-0.0603
7,O=C(NCCc1ccccc1)c1cccnc1,-0.0437
8,COc1ccccc1CO/N=C/c1cccn1-c1nccc(N(C)C)c1C#N,-0.175
9,COc1ccc(/C(C)=N/NC(=O)c2ccc(CSc3cccc4cccnc34)cc2)cc1OC,-0.51
10,Cc1ccccc1NC(NC(=O)OCCn1c([N+](=O)[O-])cnc1C)C(Cl)(Cl)Cl (stereo unspecified),-0.421
11,CC(=O)N(C(C)=O)c1c(C#N)c(C)n(-c2ccccc2)c1C(=O)c1ccccc1,0.969
12,Cc1ccc2cc3cc(C(=O)N4CCN(Cc5ccccc5)CC4)sc3nc2c1,0.586
13,CCOC(=O)/C(=N\Nc1ccc(OC)cc1)c1csc(Nc2ccccc2)n1,0.551
14,O=S(=O)(Cc1cc(-c2ccc(Cl)cc2)no1)c1ccccc1,-0.133
15,CN(C)c1nc(N)nc(/C(C#N)=C/C2CC3C=CC2C3)n1 (stereo unspecified),-1.16
16,Cn1nnnc1SCCNCc1ccc(Cl)cc1,-0.013
17,CCC(C)C(=O)N1CCCC(c2nc(-c3cccs3)no2)C1 (stereo unspecified),-0.744
18,COc1ccc(Cl)cc1NC(=O)C/C(C)=N/NC(=O)CC#N,-0.633
